This note sets out measurements from ChEMBL document CHEMBL1201862, “PubChem BioAssay data set” (2004).

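Five concentrations, 48 hours, 96-well plates. Here, GI50 denotes the concentration required for 50% inhibition of growth.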 The source made the active and inactive calls. Rule as the data show it: active = GI50 up to about 1.1 µM and inactive = higher.

The assay concerns NCI-H322M. Put plainly: NCI-60 cell line screen, 48 h.
Turning to `COc1cc(/C=C2/C(=O)N(C(=O)c3ccc(Cl)cc3)N=C2C)cc(OC)c1OC`, the GI50 was inactive: > 100 µM. To `O=c1cc(-c2ccc(O)c(O)c2)oc2cc(O[C@H]3O[C@H](CO)[C@@H](O)[C@H](O)[C@H]3O)cc(O)c12` belongs inactive: 68.2 µM.

As for `Cc1cc(C(=O)CSC(=S)SC(C)(C)C)ccc1Cl`, the GI50 was inactive: 17.6 µM. As for `CCN(CC)c1ccc2cc(C(N)=O)c(=N)oc2c1`, the GI50 is inactive: 39.3 µM. Take `O=C(O)CCc1nc(-c2ccccc2-n2cccc2)no1`: the GI50 was inactive: > 100 µM. Consider `c1ccc(NCCSc2nc3ccccc3s2)cc1`, for which the GI50 is inactive: 51.5 µM. `Cc1cccc(C)c1NC(=O)Nc1ccc(S(N)(=O)=O)cc1`: the GI50 was inactive: > 100 µM. The same measure for `O=Nc1ccc(O)c2ncccc12`: inactive: 13.2 µM; for `COC1=C2C[C@@H](C)C[C@@H](OC)[C@@H](O)[C@H](C)/C=C(\C)[C@@H](OC(N)=O)[C@H](OC)/C=C\C=C(/C)C(=O)NC(=CC1=O)C2=O`: inactive: 8.51 µM; for `CC(=O)OCC1OC(n2c3c(cc(C#N)c2=S)CCCC3)C(OC(C)=O)C(OC(C)=O)C1OC(C)=O` (stereo not drawn): inactive: > 100 µM. `CSc1ccc(Nc2cc(=O)[nH]c(=O)[nH]2)cc1`: the GI50 was inactive: > 100 µM. With `CCc1nnc(S)n1/N=C\c1ccc(-c2ccccc2Cl)o1`, the GI50 is inactive: 73.1 µM. Regarding `N#CC1(C#N)N[C@@H](c2ccsc2)[C@H]2C(=O)N(c3ccccc3)C(=O)[C@H]21`, the GI50 is inactive: > 100 µM.

As to `Cc1ccc2c(c1)C1C(CO2)C(c2ccccc2)=NN1c1ccccc1` (stereo not drawn), the GI50 was inactive: > 100 µM. Consider `CCN(CC)CCn1nc(N)c2nc3cc(Cl)ccc3nc21`, for which the GI50 was inactive: 91.2 µM. Turning to `COc1ccc(C2C3COc4ccccc4C3=NN2c2ccccc2)cc1` (stereo not drawn), the GI50 was inactive: > 100 µM.

For the molecule `O=C1CSc2cc([N+](=O)[O-])ccc2N1`, the GI50 was inactive: > 100 µM.

On to `COC(=O)C1CC2(c3ccccc3)C(=O)c3ccccc3N2O1` (stereo not drawn), for which the GI50 was inactive: > 100 µM.

As to `C=C1[C@@H]2CCC(C)(C)[C@H]1CCC(=O)[C@@H]2C(=O)OC`, the GI50 was inactive: > 100 µM.

On to `CCOC(=O)CC1=N/C(=N/C(=N)N[N+](=O)[O-])SC1`, for which the GI50 was inactive: > 100 µM. Regarding `CS[C@]12C(=O)C[C@@]3(C)[C@@H](CC[C@]3(O)C(=O)CO)[C@@H]1CCC1=CC(=O)CC[C@@]12C`, the GI50 is inactive: > 100 µM. As to `CC(=O)c1c(-c2ccccc2)c(-c2ccc(OCCN(C)C)cc2)n2ccccc12`, the GI50 is inactive: 15.5 µM. The same measure for `NCCC1(N)CCNCC1`: inactive: > 100 µM; for `CCCCCCCCCCCCCCCCNc1nc(=O)n(C2CC(O)C(CO)O2)cc1F` (stereo not drawn): inactive: 12.8 µM; for `N#C/C(=C/n1c(=S)[nH]c2ccc([N+](=O)[O-])cc21)C(N)=O`: inactive: > 100 µM. `CCC1OC2C(CC=C(C)C)=C3OC(C)(O)C(C)(CC)C(OC(C)=O)C3=C3OC(=O)C=C1C32` (stereo not drawn): the GI50 is inactive: 30.1 µM. The same measure for `O=C(c1ccccc1Br)C(F)(F)F`: inactive: > 100 µM; for `CCOC(=O)COc1cccc2occc(=O)c12`: inactive: > 100 µM. As to `CN(NC(=O)c1cccs1)C1=NCCCN1`, the GI50 is inactive: > 100 µM. Take `COc1ccc(/C=C2\C[C@H]3[C@@H]4CCC5=C/C(=N/O)CC[C@]5(C)[C@H]4CC[C@]3(C)\C2=N\O)cc1OC`: the GI50 was inactive: 9.14 µM. Turning to `Nc1nnc2nc(CC(=O)/C=C/c3ccccc3)c(=O)[nH]n12`, the GI50 is inactive: > 100 µM.

For `CC(C)=CC1(C)/C(=N\O)C(C)(CC(C)C)C(=O)N1O` (stereo not drawn), the GI50 is inactive: > 100 µM. `COc1ccc(N2C(=O)c3c(c4[nH]c5ccc(OC)cc5c4c4ccc(C(C)(C)C)cc34)C2=O)cc1`: the GI50 is inactive: > 100 µM. With `COc1ccc2nc3ccccc3c(NCCCCCCN(C)CCCl)c2c1`, the GI50 was active: 0.52 µM. For the molecule `NC(=O)N/N=C/C(/C=N/NC(N)=O)[N+](=O)[O-]`, the GI50 is inactive: > 100 µM. Take `O=C(/C=N/O)Nc1cc(Cl)c(Cl)cc1Cl`: the GI50 is inactive: 32.1 µM. To `O=c1[nH]nc(Cn2c3ccc(Br)cc3c3nc4ccccc4nc32)n1C1CCCCC1` belongs inactive: > 100 µM; to `Cc1ccc(O)c(-c2cc(-c3cccc(Br)c3)on2)c1`, inactive: 22.2 µM; to `COc1cc2c(cc1OCc1ccccc1)NC(=S)[C@@H]1CCCN1C2=S`, inactive: > 100 µM. Consider `O=C(Nn1cc(F)c(=O)[nH]c1=O)C12CC3CC(CC(C3)C1)C2`, for which the GI50 was inactive: 14.5 µM. For the molecule `O=C1NC2(CCNCC2)Oc2ccccc21`, the GI50 is inactive: > 100 µM. Take `O=C(O)CCC(=O)N1c2ccccc2CC1c1c[nH]c2ccccc12` (stereo not drawn): the GI50 was inactive: > 100 µM. On to `CCCCn1c2c(n(CCCC)c1=S)-c1c(n(CCCC)c(=S)n1CCCC)S[Se][Se]S2`, for which the GI50 was inactive: 10.6 µM. To `COc1cc2c3c(n(C)c(=O)c2cc1OC)-c1cc2c(cc1/C3=C/CCCCBr)OCO2` belongs inactive: > 100 µM; to `CN(C)c1ccc(/C=N/c2ccc(-c3nc4ccccc4[nH]3)cc2)cc1`, inactive: 46.1 µM. With `COc1ccc(NCC(=O)Nn2c(-c3ccccc3)nc3ccccc3c2=O)cc1`, the GI50 was inactive: > 100 µM. To `O=C(NC(OCc1ccccc1)(C(F)(F)F)C(F)(F)F)OCc1ccccc1` belongs inactive: 17.2 µM.

As for `CCCCCCCCCCCCCCCCP(=O)([O-])OCC[N+](C)(C)C`, the GI50 is inactive: 22.9 µM.

As for `COC(=O)[C@H](CC(C)C)NC(=O)[C@H](Cc1ccccc1)N1CC2C=CC1C2` (stereo partly drawn), the GI50 is inactive: > 100 µM.

For `Cc1c(/C=N/NC(=S)Nc2cccc(Cl)c2)c(=O)n(-c2ccccc2)n1C`, the GI50 was inactive: 21.8 µM. `CCN1C(=O)c2cc(OC)c(OC)cc2C(=O)C12OC(=O)c1cc3c(cc12)OCO3` (stereo not drawn): the GI50 was inactive: 36.1 µM. Consider `O=C1C(Br)=C(c2ccccc2)O/C1=C/C(=O)c1ccc(Br)cc1`, for which the GI50 is inactive: > 100 µM. Consider `CN(/N=C/c1cccc2cccnc12)c1ccc([N+](=O)[O-])cc1[N+](=O)[O-]`, for which the GI50 was inactive: 43.1 µM.

As to `O=C(O)c1cc2c3c(c1)[C@H]1C=CC[C@H]1CN3CC1CC=CC21` (stereo partly drawn), the GI50 is inactive: > 100 µM. Consider `CC(=O)c1c(SCCN2CCCCCC2)n(-c2ccccc2)c(=S)n(-c2ccccc2)c1=O`, for which the GI50 is inactive: 26.8 µM. As to `COC(=O)C1CCC(=O)N1C(=O)Cc1ccc(OC)cc1` (stereo not drawn), the GI50 is inactive: > 100 µM.

As to `Cn1c(SCc2c[nH]c3ccccc23)nnc1-c1ccc(Cl)cc1Cl`, the GI50 was inactive: 23.7 µM. The same measure for `Cn1c(=O)c2c3oc(=O)cc(O)c3c(=O)n3c4ccccc4n(c1=O)c23`: inactive: 76.9 µM.

On to `COC(=O)c1ccc2c(c1)CCN2C(=O)c1cc2c(cc1Br)OCO2`, for which the GI50 was inactive: 16.3 µM. On to `CSCCCNC(=O)[C@H](CSC)NC(=O)c1csc(CCNC(=O)[C@@H](NSc2ccccc2[N+](=O)[O-])C(C)O)n1` (stereo partly drawn), for which the GI50 is inactive: > 100 µM. With `Cc1nc2c(=O)n(C)c(=O)nc-2n(-c2ccc(Cl)cc2)c1C`, the GI50 is inactive: > 100 µM. The same measure for `CCNC(=S)NNC(=O)c1ccccc1Nc1ccccc1C(=O)NNC(=S)NCC`: inactive: > 100 µM; for `Cc1c2c(cc3c1[nH]c1ccccc13)C(c1ccc(F)cc1)=NCC2`: inactive: 1.77 µM; for `O=NN1CCN=C1c1ccc([N+](=O)[O-])cc1`: inactive: > 100 µM. In the case of `COc1ccc(CC[N+]2(C)COc3cc4oc(=O)cc(C)c4cc3C2)cc1OC` (stereo not drawn), the GI50 was inactive: > 100 µM.

As for `CCOC(=O)C1=C(C)N(NC(N)=O)C(C)(O)C12CCOC2=O` (stereo not drawn), the GI50 was inactive: > 100 µM. As to `CN(C)CCOc1ccc([N+](=O)[O-])c2cccnc12`, the GI50 is inactive: 51.5 µM. To `Nc1nc(Cl)c(N)c(NC23CC4CC(CC(C4)C2)C3)n1` belongs inactive: 2.13 µM. To `COc1cc2c(cc1OC)C1[C@@H](c3ccccc3)OCN1CC2` (stereo partly drawn) belongs inactive: > 100 µM; to `C=CCOCCCC(=O)C(=[N+]=[N-])C(=O)OC`, inactive: > 100 µM. As to `COC(=O)C#CCC1CCCC1C1SCCS1` (stereo not drawn), the GI50 is inactive: > 100 µM. With `CC(C)(C)OC(=O)NC(CSSCC(NC(=O)OC(C)(C)C)C(=O)O)C(=O)O` (stereo not drawn), the GI50 was inactive: > 100 µM. `Cc1ccc(S(=O)(=O)N/N=c2\c(C)c(C3=NS(=O)(=O)c4cc(S(N)(=O)=O)c(Cl)cc4N3)oc3c(Cl)cc(Cl)cc23)cc1`: the GI50 was inactive: > 100 µM. As to `NC(=O)CCC(NC(=O)c1cccc2c(=O)c3ccccc3[nH]c12)C(=O)O` (stereo not drawn), the GI50 was inactive: > 100 µM.

In the case of `CC(C)=CC1C(COC(=O)c2cc3c(cc2Cl)OCO3)C1(C)C` (stereo not drawn), the GI50 is inactive: 80.5 µM. To `CN(C)c1ccc(/C=C/C(=O)N[C@@H]2C(=O)N3[C@@H]2SC(C)(C)[C@@H]3C(=O)O)cc1` belongs inactive: > 100 µM; to `COc1ccc(CC2CCc3nc(N)nc(N)c3C2)cc1OC` (stereo not drawn), inactive: 2.91 µM. As for `Nc1ncc2c(n1)-c1ccccc1OC2N1CCCC1` (stereo not drawn), the GI50 was inactive: > 100 µM. The same measure for `C[N+](C)(C)CCCCCc1c2nc(c(CCCCC[N+](C)(C)C)c3ccc([nH]3)c(CCCCC[N+](C)(C)C)c3nc(c(CCCCC[N+](C)(C)C)c4ccc1[nH]4)C=C3)C=C2`: inactive: > 100 µM; for `O=S(=O)(O)c1cc(O)c(/N=N/c2ccc(O)cc2O)c2ccccc12`: inactive: 37.2 µM. `Cn1c(=O)nc2n(-c3ccc(F)cc3)c3ccccc3nc-2c1=O`: the GI50 was inactive: 27.5 µM.

Regarding `CCN(CC)C(=S)SS(=O)(=O)c1ccc(NC(C)=O)cc1`, the GI50 is inactive: 49.5 µM. For `COc1ccc(/C(C#N)=C/c2ccc(OC)c(OC)c2)cc1`, the GI50 is inactive: > 100 µM.
